Laboratory results as given in the supplement of paper PMC8728848.
The other results are listed elsewhere or left out.

Assays:
Assay in all cases: glycan array binding signal (z-score within array); higher = stronger binding
Details in all cases: glycan notation: IUPAC condensed, linker removed; mutation: R85A
[1] = target: GlcNAc(b1-3)Gal(b1-4)GlcNAc(b1-3)Gal(b1-4)GlcNAc
Outline: (§1)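 The Consortium for Functional Glycomics database supplied 3228 glycan arrays, of which those lacking an available protein sequence were dropped. The binding signal, a within-array Z-score, was averaged across arrays of the same protein sequence and across linkers. Negative scores can be read as non-binding.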

GlcNAc(b1-3)GalNAc = target: GlcNAc(b1-3)GalNAc
Outline: as §1

GlcNAc(b1-3)Man = target: GlcNAc(b1-3)Man
Outline: as §1

[2] = target: GlcNAc(b1-3)[GlcNAc(b1-4)][GlcNAc(b1-6)]GlcNAc
Outline: as §1

[3] = target: GlcNAc(b1-3)[GlcNAc(b1-6)]Gal(b1-4)GlcNAc
Outline: as §1

[4] = target: GlcNAc(b1-3)[GlcNAc(b1-6)]GalNAc
Outline: as §1

[5] = target: GlcNAc(b1-4)Gal(b1-4)GlcNAc
Outline: as §1

GlcNAc(b1-4)GlcNAc = target: GlcNAc(b1-4)GlcNAc
Outline: as §1

[6] = target: GlcNAc(b1-4)GlcNAc(b1-4)GlcNAc
Outline: as §1

[7] = target: GlcNAc(b1-4)GlcNAc(b1-4)GlcNAc(b1-4)GlcNAc(b1-4)GlcNAc
Outline: as §1

[8] = target: GlcNAc(b1-4)GlcNAc(b1-4)GlcNAc(b1-4)GlcNAc(b1-4)GlcNAc(b1-4)GlcNAc
Outline: as §1

[9] = target: GlcNAc(b1-4)[GlcNAc(b1-6)]GalNAc
Outline: as §1

[10] = target: GlcNAc(b1-6)Gal(b1-4)GlcNAc
Outline: as §1

GlcNAc(b1-6)GalNAc = target: GlcNAc(b1-6)GalNAc
Outline: as §1

GlcNAc3Prop(b1-4)GlcNAc = target: GlcNAc3Prop(b1-4)GlcNAc
Outline: as §1

[11] = target: GlcNAc6S(b1-3)Gal(b1-4)GlcNAc
Outline: as §1

Kdn(a2-3)Gal(b1-3)GalNAc = target: Kdn(a2-3)Gal(b1-3)GalNAc
Outline: as §1

Kdn(a2-3)Gal(b1-3)GlcNAc = target: Kdn(a2-3)Gal(b1-3)GlcNAc
Outline: as §1

Kdn(a2-3)Gal(b1-4)Glc = target: Kdn(a2-3)Gal(b1-4)Glc
Outline: as §1

Kdn(a2-3)Gal(b1-4)GlcNAc = target: Kdn(a2-3)Gal(b1-4)GlcNAc
Outline: as §1

[12] = target: Kdn(a2-3)Gal(b1-4)[Fuc(a1-3)]GlcNAc
Outline: as §1

Kdn(a2-6)Gal(b1-4)GlcNAc = target: Kdn(a2-6)Gal(b1-4)GlcNAc
Outline: as §1

[13] = target: Man(a1-2)Man(a1-2)Man(a1-3)Man
Outline: as §1

[14] = target: Man(a1-2)Man(a1-2)Man(a1-6)[Man(a1-3)]Man
Outline: as §1

Man(a1-2)Man(a1-3)Man = target: Man(a1-2)Man(a1-3)Man
Outline: as §1

[15] = target: Man(a1-2)Man(a1-3)[Man(a1-2)Man(a1-6)]Man
Outline: as §1

[16] = target: Man(a1-2)Man(a1-3)[Man(a1-2)Man(a1-6)]Man(a1-6)[Man(a1-2)Man(a1-2)Man(a1-3)]Man
Outline: as §1

[17] = target: Man(a1-2)Man(a1-3)[Man(a1-2)Man(a1-6)]Man(a1-6)[Man(a1-2)Man(a1-2)Man(a1-3)]Man(b1-4)GlcNAc(b1-4)GlcNAc
Outline: as §1

[18] = target: Man(a1-2)Man(a1-3)[Man(a1-6)]Man(a1-6)[Man(a1-2)Man(a1-3)]Man(b1-4)GlcNAc(b1-4)GlcNAc
Outline: as §1

[19] = target: Man(a1-2)Man(a1-6)[Man(a1-3)]Man(a1-6)[Man(a1-2)Man(a1-2)Man(a1-3)]Man
Outline: as §1

[20] = target: Man(a1-2)Man(a1-6)[Man(a1-3)]Man(a1-6)[Man(a1-2)Man(a1-2)Man(a1-3)]Man(b1-4)GlcNAc(b1-4)GlcNAc
Outline: as §1

Man(a1-3)[Man(a1-6)]Man = target: Man(a1-3)[Man(a1-6)]Man
Outline: as §1

[21] = target: Man(a1-3)[Man(a1-6)]Man(a1-6)[Man(a1-2)Man(a1-3)]Man(b1-4)GlcNAc(b1-4)GlcNAc
Outline: as §1

[22] = target: Man(a1-3)[Man(a1-6)]Man(a1-6)[Man(a1-3)]Man
Outline: as §1

[23] = target: Man(a1-3)[Man(a1-6)]Man(a1-6)[Man(a1-3)]Man(b1-4)GlcNAc(b1-4)GlcNAc
Outline: as §1

[24] = target: Man(a1-3)[Man(a1-6)]Man(b1-4)GlcNAc(b1-4)GlcNAc
Outline: as §1

Man(a1-6)Man = target: Man(a1-6)Man
Outline: as §1

Man(b1-4)GlcNAc = target: Man(b1-4)GlcNAc
Outline: as §1

Neu5Ac(a2-3)Gal = target: Neu5Ac(a2-3)Gal
Outline: as §1

[25] = target: Neu5Ac(a2-3)Gal(b1-3)GalNAc
Outline: as §1

[26] = target: Neu5Ac(a2-3)Gal(b1-3)GalNAc(b1-3)Gal(a1-4)Gal(b1-4)Glc
Outline: as §1

[27] = target: Neu5Ac(a2-3)Gal(b1-3)GalNAc(b1-4)[Neu5Ac(a2-3)]Gal(b1-4)Glc
Outline: as §1

[28] = target: Neu5Ac(a2-3)Gal(b1-3)GalNAc6S
Outline: as §1

[29] = target: Neu5Ac(a2-3)Gal(b1-3)GlcNAc
Outline: as §1

[30] = target: Neu5Ac(a2-3)Gal(b1-3)GlcNAc(b1-2)Man(a1-3)[Neu5Ac(a2-3)Gal(b1-3)GlcNAc(b1-2)Man(a1-6)]Man(b1-4)GlcNAc(b1-4)GlcNAc
Outline: as §1

B1: rAAL (Agrocybe aegerita), Q6WY08 (protein)
chain: MQGVNIYNISAGTSVDLAAPVTTGDIVTFFSSALNLNAGAGNPNNTTLNLFAENGAYLLHIAFRLQENVIIFNSRQPDGPWLVEQAVSDVANQFAGIDGKAMVTVFDHGDKYQVVINEKTVIQYTKQISGLTLSLSYNATEETSIFSTVVEAVTYTGLALEHHHHHH
glycan array binding signal (z-score) [1]: -0.136 | glycan array binding signal (z-score) (GlcNAc(b1-3)GalNAc): -0.138 | glycan array binding signal (z-score) (GlcNAc(b1-3)Man): -0.142 | glycan array binding signal (z-score) [2]: -0.14 | glycan array binding signal (z-score) [3]: -0.134 | glycan array binding signal (z-score) [4]: -0.136 | glycan array binding signal (z-score) [5]: -0.131 | glycan array binding signal (z-score) (GlcNAc(b1-4)GlcNAc): -0.132 | glycan array binding signal (z-score) [6]: -0.133 | glycan array binding signal (z-score) [7]: -0.144 | glycan array binding signal (z-score) [8]: -0.123 | glycan array binding signal (z-score) [9]: -0.133 | glycan array binding signal (z-score) [10]: -0.134 | glycan array binding signal (z-score) (GlcNAc(b1-6)GalNAc): -0.127 | glycan array binding signal (z-score) (GlcNAc3Prop(b1-4)GlcNAc): -0.137 | glycan array binding signal (z-score) [11]: -0.13 | glycan array binding signal (z-score) (Kdn(a2-3)Gal(b1-3)GalNAc): -0.095 | glycan array binding signal (z-score) (Kdn(a2-3)Gal(b1-3)GlcNAc): -0.046 | glycan array binding signal (z-score) (Kdn(a2-3)Gal(b1-4)Glc): -0.103 | glycan array binding signal (z-score) (Kdn(a2-3)Gal(b1-4)GlcNAc): -0.143 | glycan array binding signal (z-score) [12]: -0.131 | glycan array binding signal (z-score) (Kdn(a2-6)Gal(b1-4)GlcNAc): -0.116 | glycan array binding signal (z-score) [13]: -0.12 | glycan array binding signal (z-score) [14]: -0.129 | glycan array binding signal (z-score) (Man(a1-2)Man(a1-3)Man): -0.134 | glycan array binding signal (z-score) [15]: -0.128 | glycan array binding signal (z-score) [16]: -0.137 | glycan array binding signal (z-score) [17]: -0.124 | glycan array binding signal (z-score) [18]: -0.136 | glycan array binding signal (z-score) [19]: -0.135 | glycan array binding signal (z-score) [20]: -0.139 | glycan array binding signal (z-score) (Man(a1-3)[Man(a1-6)]Man): -0.125 | glycan array binding signal (z-score) [21]: -0.133 | glycan array binding signal (z-score) [22]: -0.134 | glycan array binding signal (z-score) [23]: -0.139 | glycan array binding signal (z-score) [24]: -0.129 | glycan array binding signal (z-score) (Man(a1-6)Man): -0.137 | glycan array binding signal (z-score) (Man(b1-4)GlcNAc): -0.112 | glycan array binding signal (z-score) (Neu5Ac(a2-3)Gal): -0.143 | glycan array binding signal (z-score) [25]: 0.645 | glycan array binding signal (z-score) [26]: 0.132 | glycan array binding signal (z-score) [27]: 0.345 | glycan array binding signal (z-score) [28]: -0.018 | glycan array binding signal (z-score) [29]: -0.078 | glycan array binding signal (z-score) [30]: -0.144
